This is one part of the list. Sequences were assembled here from the parent chain. Values near 0.05 are background.

B1: TEV protease; numbered along this chain (parent)
chain: MGESLFKGPRDYNPISSSICHLTNESDGHTTSLYGIGFGPFIITNKHLFRRNNGTLVVQSLHGVFKVKDTTTLQQHLVDGRDMIIIRMPKDFPPFPQKLKFREPQREERICLVTTNFQTKSMSSMVSDTSCTFPSGDGIFWKHWIQTKDGQCGSPLVSTRDGFIVGIHSASNFTNTNNYFTSVPKNFMELLTNQEAQQWVSGWRLNADSVLWGGHKVFMVKPEEPFQPVKEATQL
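Further: Bxb1 expression induced with 0.2% (w/v) L-rhamnose at OD600 near 0.5, cultures sampled hourly, flipped fraction per protease–substrate barcode pair counted by paired-end Illumina sequencing.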

The variants in the experiment derive from B1. In words: raw area under fraction-flipped curve 0-4 h after induction (AUC4h, not background-subtracted), DNA-recorder readout of cleavage of the substrate (dimensionless); higher = more cleavage of the substrate by the protease variant. The note with it: temperature: 34 °C; time window: 0-4 h after rhamnose induction.
Turning to MGESLFKGPRDYNPISSSICHLTNESDGHTTSLYGIGFGPFIITNKHLFRRNNGTLVVQSLHGVFKVKDTTTLQQHLVDGRDMIIIRMPKDFPPFPQKLKFREPQREERICLVTTNFQTKSMSSMVSDTSCTFPSGDGIFWKHWIQTKDGQCGSPLVSTRDGFIVGIHSASNFTNTNNYFTSVPKNFMELLTNQEAQQWVSGWRLNADSVLWGGHKVFMVKPEEPFQWVKEATQL [P228W], the “area with substrate EELYFQS” value worked out at 0.053, the “area with substrate EILYFQS” value is 0.0743, the “area with substrate EKLYFQS” value amounted to 0.114 and the “area with substrate ELLYFQS” value was determined as 0.091. The “area with substrate EQLYFQS” value was determined as 0.113, the “area with substrate EVLYFQS” value came to 0.103 and the “area with substrate EYLYFQS” value was found to be 0.0877.

As to MGESLFKGPRDYNPISSSICHLTNESDGHTTSLYGIGFGPFIITNKHLFRRNNGTLVVQSLHGVFKVKDTTTLQQHLVDGRDMIIIRMPKDFPPFPQKLKFREPQREERICLVTTNFQTKSMSSMVSDTSCTFPSGDGIFWKHWIQTKDGQCGSPLVSTRDGFIVGIHSASNFTNTNNYFTSVPKRFMELLTNQEAQQWVSGWRLNADSVLWGGHKVFMVKPEEPFQPVKEATQL [N186R], the “area with substrate EELYFQS” value was determined as 0.148, the “area with substrate EMLYFQS” value came out at 0.136 and the “area with substrate ESLYFQS” value was 0.105.

For MGESLFKGPRDYNPISSSICHLTNESDGHTTSLYGIGFGPFIITNKHLFRRNNGTLVVQSLHGVFKVKDTTTLQQHLVDGRDMIIIRMPKDFPPFPQKLKFREPQREERICLVTTNFQTKSMSSMVSDTSCTFPSGDGIFWKHWIQTKDGQCGSPLVSTRDGFIVGIHSASNFTSTNNYFTSVPKNFMELLTNQEAQQWVSGWRLNADSVLWGGHKVFMVKPEEPFQPVKEATQL [N175S], the “area with substrate EFLYFQS” value came to 0.0865, the “area with substrate EILYFQS” value turned out to be 0.0805, the “area with substrate EPLYFQS” value was determined as 0.0922 and the “area with substrate ERLYFQS” value amounted to 0.0708. Further, the “area with substrate ESLYFQS” value stood at 0.0923 and the “area with substrate EWLYFQS” value is 0.0681.

For the variant MGESLFKGPRDYNPISSSICHLTNESDGHTTSLYGIGFGPFIITNKHLFRRNNGTLVVQSLHGVFKVKDTTTLQQHLVDGRDMIIIRMPKDFPPFPQKLKFREPQREERICLVTTNFQTKSMSSMVSDTSCTFPSGDGIFWKHWIQTKDGQCGSPLVSTRDGFIVGIHSASNFTNTNNYFTSVPKNFMELLTNQHAQQWVSGWRLNADSVLWGGHKVFMVKPEEPFQPVKEATQL [E195H], the “area with substrate EELYFQS” value turned out to be 0.0931, the “area with substrate EGLYFQS” value was found to be 0.0984, the “area with substrate EKLYFQS” value was determined as 0.109 and the “area with substrate ELLYFQS” value turned out to be 0.0781. Besides, the “area with substrate EMLYFQS” value turned out to be 0.117, the “area with substrate ERLYFQS” value was 0.1, the “area with substrate ETLYFQS” value came out at 0.0937 and the “area with substrate EVLYFQS” value was 0.11.

For the variant MGESLFKGPRDYNPISSSICHLTNESDGHTTSLYGIGFGPFIITNKHLFRRNNGTLVVQSLHGVFKVKDTTTLQQHLVDGRDMIIIRMPKDFPPFPQKLKFREPQREERICLVTTNFQTKSMSSMVSDTSCTFPSGDGISWKHWIQTKDGQCGSPLVSTRDGFIVGIHSASNFTNTNNYFTSVPKNFMELLTNQEAQQWVSGWRLNADSVLWGGHKVFMVKPEEPFQPVKEATQL [F140S], the “area with substrate EFLYFQS” value is 0.0602, the “area with substrate EKLYFQS” value was 0.0799, the “area with substrate EQLYFQS” value was 0.0794 and the “area with substrate ERLYFQS” value amounted to 0.0605. For the same variant, the “area with substrate ETLYFQS” value is 0.0621 and the “area with substrate EVLYFQS” value is 0.0245.

With MGESLFKGPRDYNPISSSICHLTNESDGHTTSLYGIGFGPFIITNKHLFRRNNGTLVVQSLHGVFKVKDTTTLQQHLVDGRDMIIIRMPKDFPPFPQKLKFREPQREERICLVTTNFQTKSMSSMVSDTSCTFPSGDGIFWKHWIQTKDGQCGSPLVSTRDGFIVGIHSASNFTNTNNYFTSVPKNFMELLTNQEAQQWVSGWRSNADSVLWGGHKVFMVKPEEPFQPVKEATQL [L205S], the “area with substrate EELYFQS” value was found to be 0.0839, the “area with substrate ELLYFQS” value was determined as 0.0835 and the “area with substrate EYLYFQS” value came to 0.0905.

Consider MNESLFKGPRDYNPISSSICHLTNESDGHTTSLYGIGFGPFIITNKHLFRRNNGTLVVQSLHGVFKVKDTTTLQQHLVDGRDMIIIRMPKDFPPFPQKLKFREPQREERICLVTTNFQTKSMSSMVSDTSCTFPSGDGIFWKHWIQTKDGQCGSPLVSTRDGFIVGIHSASNFTNTNNYFTSVPKNFMELLTNQEAQQWVSGWRLNADSVLWGGHKVFMVKPEEPFQPVKEATQL [G2N], for which the “area with substrate EFLYFQS” value is 0.118, the “area with substrate EILYFQS” value was determined as 0.142, the “area with substrate EMLYFQS” value amounted to 0.211 and the “area with substrate ETLYFQS” value was found to be 0.181. In addition, the “area with substrate EYLYFQS” value amounted to 0.135.

In the case of MGESLFKGPRDYNPISSSICHLTNESDGHTTSLYGIGFGPFIITNKHLFRRNNGTLVVQSLHGVFKVKDTTTLQQHLVDGRDMIIIRMPKDFPPFPQKLKFRPPQREERICLVTTNFQTKSMSSMVSDTSCTFPSGDGIFWKHWIQTKDGQCGSPLVSTRDGFIVGIHSASNFTNTNNYFTSVPKNFMELLTNQEAQQWVSGWRLNADSVLWGGHKVFMVKPEEPFQPVKEATQL [E103P], the “area with substrate EFLYFQS” value was determined as 0.117, the “area with substrate EILYFQS” value stood at 0.0906, the “area with substrate EKLYFQS” value is 0.11 and the “area with substrate ELLYFQS” value was 0.0698. The “area with substrate EMLYFQS” value worked out at 0.126, the “area with substrate ERLYFQS” value worked out at 0.109, the “area with substrate ESLYFQS” value was found to be 0.101 and the “area with substrate ETLYFQS” value is 0.0925. Also, the “area with substrate EWLYFQS” value was found to be 0.0989.

Consider MGESLFKGPRDYNPISSSICHLTNESDGHTTSLYGIGFGPFIITNKHLFRRNNGTLVVQSLHGVFKVKDTTTLQQHLVDGRDMIIIRMPKDFPPFPQKLKFREPQREERICLVTTNFQTKSMSSMVSDTSCTFPSGDGIFWKHWIQTKDGQCGSPLVSTRDGFIVGIHSASNFTNTNNYFTSVPKNFMELLTNQEAQQWVSGPRLNADSVLWGGHKVFMVKPEEPFQPVKEATQL [W203P], for which the “area with substrate EELYFQS” value worked out at 0.0295 and the “area with substrate EVLYFQS” value is 0.0525.

On to MGESLFKGPRDYNPISSSICHLTNESDGHTTSLYGIGFGPFIITNKHLFRRNNGTLVDQSLHGVFKVKDTTTLQQHLVDGRDMIIIRMPKDFPPFPQKLKFREPQREERICLVTTNFQTKSMSSMVSDTSCTFPSGDGIFWKHWIQTKDGQCGSPLVSTRDGFIVGIHSASNFTNTNNYFTSVPKNFMELLTNQEAQQWVSGWRLNADSVLWGGHKVFMVKPEEPFQPVKEATQL [V58D], for which the “area with substrate EFLYFQS” value turned out to be 0.0588, the “area with substrate EVLYFQS” value was found to be 0.0476 and the “area with substrate EWLYFQS” value came to 0.0608.

Regarding MGESLFKGPRDYNPISSSICHLTNESDGHTTSLYGIGFGPFIITNKHLFRRNNGTLVVQSLHGVFKVKDTTTLQQHLVDGRDMIIIRMPKDFPPFPQKLKIREPQREERICLVTTNFQTKSMSSMVSDTSCTFPSGDGIFWKHWIQTKDGQCGSPLVSTRDGFIVGIHSASNFTNTNNYFTSVPKNFMELLTNQEAQQWVSGWRLNADSVLWGGHKVFMVKPEEPFQPVKEATQL [F101I], the “area with substrate EFLYFQS” value stood at 0.0806, the “area with substrate EGLYFQS” value turned out to be 0.0724, the “area with substrate EILYFQS” value worked out at 0.0655 and the “area with substrate EKLYFQS” value worked out at 0.0842. The “area with substrate EQLYFQS” value was 0.0744, the “area with substrate ERLYFQS” value was 0.0753, the “area with substrate ESLYFQS” value came to 0.0751 and the “area with substrate EVLYFQS” value is 0.0669.
